Source: article PMC4336329 (PLoS ONE, 2015)
Out of some 310,000 compounds screened, about 14,000 (4.5%) showed an effect of 50% or more. Effects have a minus sign here. The list shows a part of the results.

Biological target: human ether-à-go-go-related gene (hERG) potassium channel (human, UniProt Q12809)
Assay: primary screen, population patch clamp on CHO cells stably expressing hERG
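Further: peak tail current of the secondary pulse compared with the same well before compound.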

Sequence of human ether-à-go-go-related gene (hERG) potassium channel (Q12809 whole entry, looked up): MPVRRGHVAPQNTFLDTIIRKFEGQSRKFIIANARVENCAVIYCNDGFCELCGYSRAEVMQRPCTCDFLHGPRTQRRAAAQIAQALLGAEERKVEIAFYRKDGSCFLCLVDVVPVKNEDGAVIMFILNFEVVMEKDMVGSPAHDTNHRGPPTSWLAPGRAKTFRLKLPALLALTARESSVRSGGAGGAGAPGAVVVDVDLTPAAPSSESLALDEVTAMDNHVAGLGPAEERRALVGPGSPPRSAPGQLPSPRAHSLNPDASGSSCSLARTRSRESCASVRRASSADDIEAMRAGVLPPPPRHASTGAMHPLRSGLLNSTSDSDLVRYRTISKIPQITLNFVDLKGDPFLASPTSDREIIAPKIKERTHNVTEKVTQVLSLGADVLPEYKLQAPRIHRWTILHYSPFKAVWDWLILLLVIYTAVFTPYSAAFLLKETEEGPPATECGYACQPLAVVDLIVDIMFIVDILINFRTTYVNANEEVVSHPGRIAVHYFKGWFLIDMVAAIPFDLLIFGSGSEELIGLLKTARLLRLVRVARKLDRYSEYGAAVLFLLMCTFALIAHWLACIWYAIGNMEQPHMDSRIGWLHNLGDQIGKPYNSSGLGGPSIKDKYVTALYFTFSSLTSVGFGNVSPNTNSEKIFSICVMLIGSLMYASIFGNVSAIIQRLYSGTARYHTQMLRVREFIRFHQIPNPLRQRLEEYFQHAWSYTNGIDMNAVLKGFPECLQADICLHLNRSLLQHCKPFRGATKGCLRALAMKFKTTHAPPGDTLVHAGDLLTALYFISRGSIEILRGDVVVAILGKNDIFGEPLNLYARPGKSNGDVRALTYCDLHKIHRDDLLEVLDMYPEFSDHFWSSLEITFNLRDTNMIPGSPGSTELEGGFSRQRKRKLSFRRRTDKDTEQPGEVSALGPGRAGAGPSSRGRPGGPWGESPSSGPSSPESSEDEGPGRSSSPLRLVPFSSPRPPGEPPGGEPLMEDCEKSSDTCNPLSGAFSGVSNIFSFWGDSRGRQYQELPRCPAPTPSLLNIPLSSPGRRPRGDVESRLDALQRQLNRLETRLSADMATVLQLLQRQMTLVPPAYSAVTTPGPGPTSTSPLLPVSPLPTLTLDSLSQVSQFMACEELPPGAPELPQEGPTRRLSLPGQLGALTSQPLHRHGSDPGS

Row | Structure (SMILES) | hERG current change (%, negative = inhibition) at 10uM [%]
1 | CCO[C@H]1OC(C(=O)NC2CC2)=C[C@@H](c2csc3ccccc23)[C@@H]1CCCO | -34.5
2 | N#CCc1nc(CSc2nc3ccccc3o2)cs1 | 5.14
3 | CCOc1ccc(C(=O)CCC(=O)N(CC)CC(=O)NCc2cccs2)cc1 | -19.9
4 | COCCNC(=S)N/N=C(\C)c1cccc(OC)c1 | -27.8
5 | CC(=O)c1ccc(C(=O)N2CCCC(CNC(=O)c3ccccc3Cl)C2)cc1 (centres unmarked) | -2.66
6 | COc1cccc(Cn2c(NCC(C)C)nc3c2c(=O)n(C)c(=O)n3C)c1 | -10.2
7 | O=C(CSc1nnc(-c2cccnc2)n1Cc1ccco1)c1ccc(Cl)cc1 | -63.6
8 | CC(C)c1ccc(NS(=O)(=O)c2cn(C)c(=O)n(C)c2=O)cc1 | 2.97
9 | COc1ccc(-c2nc[nH]c2[N+](=O)[O-])cc1 | 9.19
10 | CC(C)Cn1c(N)c(C(=O)CSc2nnc(-c3ccco3)n2C)c(=O)n(C)c1=O | -2.89
11 | COC(=O)C1=C(c2cccc(C#N)c2)C[C@@H]2CC[C@H]1N2C(=O)NC(C)C | -11.7
12 | Cc1c(C(=O)Nc2ccc(S(N)(=O)=O)cc2)oc2ccc(Cl)cc12 | 27.2
13 | COCC(C)n1c(C)cc(C(=O)CSc2ccc(NC(C)=O)cc2)c1C (centres unmarked) | -8.41
14 | CCNC(=O)c1nc[nH]c1C(=O)NCC | 1.23
15 | Cc1ccc2c(c1)C1CN(C)CCC1N2C(=O)c1cn(-c2ccccc2)nc1-c1ccccc1 (centres unmarked) | -65.6
16 | NS(=O)(=O)c1ccc(NC(=O)CSc2nc(Nc3ccccc3)nc(N3CCOCC3)n2)cc1 | 21.3
17 | O=C(C(=O)N1CCCC1)c1c[nH]c2ccccc12 | 7.14
18 | CCN(c1cccc(C)c1)S(=O)(=O)c1ccc2c3c(cccc13)C(=O)N2 | 5.84
19 | O=C(c1ccco1)N1CCN(C(c2coc3ccc(Cl)cc3c2=O)c2nnnn2C2CCCC2)CC1 (centres unmarked) | -55.6
20 | CCNC(=S)N1CCC(C(O)(c2ccccc2)c2ccccc2)CC1 | 11.8
21 | O=C(CNC(=O)c1ccco1)OCC(=O)c1ccc(Cl)cc1 | -0.204
22 | O=C(Cn1cc(-c2nnnn2-c2ccc(Cl)cc2)c(=O)c2ccccc21)c1ccccc1 | 4.29
23 | CC(=O)c1ccc(NC(=O)C(C)Sc2nnc(C3CCCCC3)o2)cc1 (centres unmarked) | -4.84

Row | Structure (SMILES) | hERG current change (%, negative = inhibition) at 10uM [%]
24 | O=C1CN(CC(=O)NC2CCCc3ccccc32)CCN1 (centres unmarked) | -0.286
25 | O=S1(=O)N=C(N/N=C/c2ccc(Br)o2)c2ccccc21 | 30.6
26 | CCCN(CC(=O)Nc1ccccc1OC)C(=O)Cc1ccccc1F | -0.774
27 | C[n+]1ccccc1C1CCCC/C1=N\Nc1ccc([N+](=O)[O-])cc1[N+](=O)[O-].[I-] (centres unmarked) | -11.8
28 | COc1ccc(/C=N/NC(=O)c2ccn[nH]2)cc1COc1ccc(F)cc1 | 15.8
29 | O=C(O)C(c1ccccc1)C(c1ccccc1)c1ccccc1 (centres unmarked) | 12.4
30 | O=C(O)C(Cc1ccccc1)n1c(=S)[nH]c2ccccc2c1=O (centres unmarked) | 20.9
31 | CCN1CCc2c(OCC(=O)N3CCC(C)CC3)cccc2C1=O | 11.4
32 | Cc1cc[n+](Cc2ccccc2)c(N)c1.[Cl-] | 7.26
33 | N#CCCN/N=C(/Cc1nc2ccccc2[nH]1)c1ccc(Cl)cc1 | -16.6
34 | Cc1ccc(S(=O)(=O)Nc2nc3ccc(S(C)(=O)=O)cc3s2)cc1 | 17.5
35 | O=C(CCN1C(=O)/C(=C\c2ccc(F)cc2)SC1=S)Nc1ccc(O)cc1 | 17.2
36 | CC(=O)C1=C(O)C(=O)N(Cc2ccccc2)C1c1ccco1 (centres unmarked) | 2.63
37 | O=c1ccc2cc(S(=O)(=O)N3CCN(c4ccccc4F)CC3)ccc2[nH]1 | -18.1
38 | COCCNC(=O)c1ccc(-n2c(SCc3cc(F)ccc3F)nc3ccccc3c2=O)cc1 | 10.8
39 | O=C(Nc1cccc(C(F)(F)F)c1)c1cc(S(=O)(=O)N2CCCCC2)ccc1N1CCOCC1 | -8.02
40 | O=C1C2CCN(CC2)[C@@H]1Cc1ccc2ccccc2c1O | -36.8
41 | CC(=O)c1ccc(NC(=S)Nc2cccc(Cl)c2C)cc1 | 9.05
42 | COC(=O)C(C)SC1=N/C(=C/c2ccc(-n3cncn3)cc2)C(=O)N1 (centres unmarked) | -2.6
43 | CCN(CC)CC(=O)c1c(N)n(Cc2ccccc2)c(=O)n(C)c1=O | -2.27
44 | CC(C)c1nc(-c2ccc([N+](=O)[O-])cc2)cs1 | 1.87
45 | CCCCC(CC)CNC(=O)CCCCn1c(=O)[nH]c2ccsc2c1=O (centres unmarked) | 1.39
46 | CC(Oc1ccccc1)c1ccnn1S(C)(=O)=O (centres unmarked) | 9.36

Row | Structure (SMILES) | hERG current change (%, negative = inhibition) at 10uM [%]
47 | COc1ccc(NC(=O)/C=C2\SC(=O)NC2=O)cc1 | 16.3
48 | O=C(CCSc1ccc(Cl)cc1)N1CCCCCC1 | -4.88
49 | COc1ccc(C(CNS(=O)(=O)c2ccccc2)N2CCN(C)CC2)cc1 (centres unmarked) | -35.7
50 | CCOC(=O)CNC(=O)CN1C(=O)CC(c2ccco2)Sc2ccccc21 (centres unmarked) | -43.2
51 | Cc1nc(NC(=O)CSc2nc3ccccc3s2)sc1C(=O)N(C)C | -5.34
52 | COc1ccc(/C=C2\OC(=O)c3c(OC)cccc32)cc1OC | 11.9
53 | CCOc1ccc(OCC)c(NC(=O)C2CCCN(S(=O)(=O)c3c(C)noc3C)C2)c1 (centres unmarked) | 0.212
54 | O=C(CSc1cccc[n+]1[O-])N1CCCCCC1 | 9.81
55 | COc1ccc(C2C(C(=O)Nc3cccc(C)n3)c3ccccc3C(=O)N2C)cc1OC (centres unmarked) | -30.1
56 | CC1=C(C)C(OCCCl)N(c2cc(O)c(Cl)cc2F)C1=O (centres unmarked) | 16.1
57 | CN1CCN(Cc2ccc(N)cc2)CC1 | 7.24
58 | CCCCc1ccc(-c2ccc(Br)cc2O)nc1 | 10.4
59 | O=C(NCCCN1CCOCC1)c1cc2c([nH]c3ccccc32)c(-c2cccc(Br)c2)n1 | -40.8
60 | CCOC(=O)NC(Nc1nc2ccccc2s1)(C(=O)OCC)C(F)(F)F (centres unmarked) | -2.55
61 | COc1ccccc1/C=C/C(=O)NC1CC2CCC1C2 (centres unmarked) | -3.53
62 | CC(C)Nc1nnc(SC(C)C(=O)Nc2ccc(N3CCOCC3)cc2)s1 (centres unmarked) | 4.69
63 | CCOc1ccccc1NC(=O)Cc1coc2ccc(C)cc12 | 7.85
64 | CC1CCc2c(sc3ncn(N)c(=N)c23)C1 (centres unmarked) | -11.3
65 | Cc1cc(C)cc(C(=O)OCC(=O)Nc2cccc(S(=O)(=O)NC3=NCCCCC3)c2)c1 | -10.3
66 | CN(C)/N=C/c1cc(Cl)cc([N+](=O)[O-])c1O | 8.21
67 | O=C(CCc1ccc(S(=O)(=O)N2CCOCC2)cc1)N/N=C/c1ccc(O)c(O)c1O | 18.9
68 | O=C(COc1ccc(F)cc1)Nc1nnc(S(=O)(=O)N2CCCC2)s1 | 8.11
69 | Cc1cc(NC(=O)CSc2nc(-c3ccccc3)c(C#N)c(=O)[nH]2)no1 | -0.629

Row | Structure (SMILES) | hERG current change (%, negative = inhibition) at 10uM [%]
70 | COc1ccc(-c2nn(-c3ccccc3)cc2C(=O)NC2CC2)cc1 | -4.55
71 | O=C(CSc1nnc(NC(=O)c2ccco2)s1)NC1CCCCC1 | 2.07
72 | Cc1ccc(Cn2c(C3CCCN3c3nc(-c4ccc(F)cc4)cs3)nc3cc(C(F)(F)F)ccc32)cc1 (centres unmarked) | 0.76
73 | O=C(Cn1cnc2ccccc2c1=O)Nc1ccc2c(c1)CCC2 | -20
74 | N=c1oc2ccc(Br)cc2cc1C(=O)NCc1ccc(F)cc1 | 5.37
75 | COc1cccc(N2CCN(C(=O)Nc3ccccc3Cl)CC2)c1 | -10.5
76 | COCCNC(=O)CN1C(=O)NC2(CCCCCC2)C1=O | 2.42
77 | Cc1ccc(S(=O)(=O)N2CCN(CC(O)CN3CCOCC3)CC2)cc1 (centres unmarked) | 5.52
78 | Cc1cc2c(SCC(=O)N3CCN(c4ccccc4)CC3)ncnc2s1 | 2.2
79 | Cc1ccc(Nc2nc(N)nc(CN3CCCCCC3)n2)c(C)c1 | -45.8
80 | O=C(/C=C/c1ccco1)c1ccccc1O | 21.8
81 | O=C(O)C1C2C=CC(C2)C1C(=O)N1CCN(C/C=C/c2ccccc2)CC1 (centres unmarked) | 17.1
82 | CCCCC(CC)CNC(=O)C(=O)C1C(=O)Nc2ccccc21 (centres unmarked) | 5.84
83 | COc1ccccc1CCC(=O)Nc1ccc2c(c1)CN(Cc1ccc(C)o1)CC2 | -27
84 | COc1ccccc1CN1C2CCCC1CC(NC(=O)/C=C/c1ccccc1)C2 (centres unmarked) | -59.4
85 | COC(=O)c1cc2occc2n1Cc1ccc(Cl)cc1 | 9.68
86 | O=C(NC12CC3CC(CC(C3)C1)C2)c1ccc(S(=O)(=O)N2CCOCC2)cc1 | 1.24
87 | COc1ccc(N2C(=O)[C@@H]3[C@H](C2=O)[C@H](C(C)=O)N2c4ccccc4C=C[C@@H]32)cc1 | 2.41
88 | CC1(C)Cc2c(sc(NC(=O)c3ccc(Br)o3)c2C#N)CO1 | 16.6
89 | COCCNC(=O)c1ccc2c(c1)ncn2-c1ccc(C)c(Cl)c1 | -17.8
